# Results: the supplement of paper PMC8728848
# This is one part of the list.
# B1: Cohesin-mDC-ASGPR (Macaca mulatta) (protein)
# chain: LDITSHHHHHHDDLDAVRIKVDTVNAKPGDTVRIPVRFSGIPSKGIANCDFVYSYDPNVLEIIEIEPGDIIVDPNPDKSFDTAVYPDRKIIVFLFAEDSGTGAYAITKDGVFATIVAKVKEGAPNGLSVIKFVEVGGFANNDLVEQKTQFFDGGVNVGDTTEPATPTTPVTTPTTTDDLDAASSQNSKFQRDLVTLRTDFSNFTSNTVAEIQALTSQGSSVEEMIASLKAEVEVIKQEQQAVHSEMLLRVQRLMQDLNKLTCQVATLKNNASTERTCCPVNWVEHQDSCYWFSRSGMPWAEAEKHCQLENAHLVVINSREEQNFVQEHLSFAYTWMGLSDREGAWKWVDGTDYETGFQNWKPGQPDDWQGHGLGGGEDCAHFHPDGRWNDDVCQRPYYWVCEAGLTQASQESH
# How the values were obtained:
# Experiment in all cases: glycan array binding signal (z-score within array); higher = stronger binding
# Conditions in all cases: glycan notation: IUPAC condensed, linker removed
# Neu5Ac(a2-3)GalNAc = biological target: Neu5Ac(a2-3)GalNAc
# In short: (§1)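 Negative Z-scores can be read as non-binding. The Z-score is calculated within each array and then averaged across arrays of one protein sequence at different concentrations or buffers and across linkers. Arrays, 3228 in all, were curated from the Consortium for Functional Glycomics database and kept only where the protein sequence was available.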
# [1] = biological target: Neu5Ac(a2-3)GalNAc(b1-4)GlcNAc
# In short: as §1
# [2] = biological target: Neu5Ac(a2-3)[GalNAc(b1-4)]Gal(b1-4)Glc
# In short: as §1
# [3] = biological target: Neu5Ac(a2-3)[GalNAc(b1-4)]Gal(b1-4)GlcNAc
# In short: as §1
# [4] = biological target: Neu5Ac(a2-3)[GalNAc(b1-4)]Gal(b1-4)GlcNAc(b1-3)GalNAc
# In short: as §1
# [5] = biological target: Neu5Ac(a2-3)[Neu5Ac(a2-6)]GalNAc
# In short: as §1
# Neu5Ac(a2-6)Gal = biological target: Neu5Ac(a2-6)Gal
# In short: as §1
# [6] = biological target: Neu5Ac(a2-6)Gal(b1-3)GlcNAc(b1-3)[Gal(b1-4)GlcNAc(b1-6)]Gal(b1-4)Glc
# In short: as §1
# Neu5Ac(a2-6)Gal(b1-4)Glc = biological target: Neu5Ac(a2-6)Gal(b1-4)Glc
# In short: as §1
# [7] = biological target: Neu5Ac(a2-6)Gal(b1-4)GlcNAc
# In short: as §1
# [8] = biological target: Neu5Ac(a2-6)Gal(b1-4)GlcNAc(b1-2)Man
# In short: as §1
# [9] = biological target: Neu5Ac(a2-6)Gal(b1-4)GlcNAc(b1-2)Man(a1-3)Man(b1-4)GlcNAc(b1-4)GlcNAc
# In short: as §1
# [10] = biological target: Neu5Ac(a2-6)Gal(b1-4)GlcNAc(b1-2)Man(a1-3)[Gal(b1-4)GlcNAc(b1-2)Man(a1-6)]Man(b1-4)GlcNAc(b1-4)GlcNAc
# In short: as §1
# [11] = biological target: Neu5Ac(a2-6)Gal(b1-4)GlcNAc(b1-2)Man(a1-3)[GlcNAc(b1-2)Man(a1-6)]Man(b1-4)GlcNAc(b1-4)GlcNAc
# In short: as §1
# [12] = biological target: Neu5Ac(a2-6)Gal(b1-4)GlcNAc(b1-2)Man(a1-3)[GlcNAc(b1-4)][Neu5Ac(a2-6)Gal(b1-4)GlcNAc(b1-2)Man(a1-6)]Man(b1-4)GlcNAc(b1-4)GlcNAc
# In short: as §1
# [13] = biological target: Neu5Ac(a2-6)Gal(b1-4)GlcNAc(b1-2)Man(a1-3)[Man(a1-6)]Man(b1-4)GlcNAc(b1-4)GlcNAc
# In short: as §1
# [14] = biological target: Neu5Ac(a2-6)Gal(b1-4)GlcNAc(b1-2)Man(a1-3)[Neu5Ac(a2-3)Gal(b1-4)GlcNAc(b1-2)Man(a1-6)]Man(b1-4)GlcNAc(b1-4)GlcNAc
# In short: as §1
# [15] = biological target: Neu5Ac(a2-6)Gal(b1-4)GlcNAc(b1-2)Man(a1-3)[Neu5Ac(a2-6)Gal(b1-4)GlcNAc(b1-2)Man(a1-6)]Man(b1-4)GlcNAc(b1-4)GlcNAc
# In short: as §1
# [16] = biological target: Neu5Ac(a2-6)Gal(b1-4)GlcNAc(b1-2)Man(a1-3)[Neu5Ac(a2-6)Gal(b1-4)GlcNAc(b1-2)Man(a1-6)]Man(b1-4)GlcNAc(b1-4)[Fuc(a1-6)]GlcNAc
# In short: as §1
# [17] = biological target: Neu5Ac(a2-6)Gal(b1-4)GlcNAc(b1-2)Man(a1-6)Man(b1-4)GlcNAc(b1-4)GlcNAc
# In short: as §1
# [18] = biological target: Neu5Ac(a2-6)Gal(b1-4)GlcNAc(b1-2)Man(a1-6)[Gal(b1-4)GlcNAc(b1-2)Man(a1-3)]Man(b1-4)GlcNAc(b1-4)GlcNAc
# In short: as §1
# [19] = biological target: Neu5Ac(a2-6)Gal(b1-4)GlcNAc(b1-2)Man(a1-6)[GlcNAc(b1-2)Man(a1-3)]Man(b1-4)GlcNAc(b1-4)GlcNAc
# In short: as §1
# [20] = biological target: Neu5Ac(a2-6)Gal(b1-4)GlcNAc(b1-2)Man(a1-6)[Man(a1-3)]Man(b1-4)GlcNAc(b1-4)GlcNAc
# In short: as §1
# [21] = biological target: Neu5Ac(a2-6)Gal(b1-4)GlcNAc(b1-2)[Neu5Ac(a2-6)Gal(b1-4)GlcNAc(b1-4)]Man(a1-3)[GlcNAc(b1-4)][Neu5Ac(a2-6)Gal(b1-4)GlcNAc(b1-2)[Neu5Ac(a2-6)Gal(b1-4)GlcNAc(b1-6)]Man(a1-6)]Man(b1-4)GlcNAc(b1-4)GlcNAc
# In short: as §1
# [22] = biological target: Neu5Ac(a2-6)Gal(b1-4)GlcNAc(b1-2)[Neu5Ac(a2-6)Gal(b1-4)GlcNAc(b1-4)]Man(a1-3)[GlcNAc(b1-4)][Neu5Ac(a2-6)Gal(b1-4)GlcNAc(b1-4)Man(a1-6)]Man(b1-4)GlcNAc(b1-4)GlcNAc
# In short: as §1
# [23] = biological target: Neu5Ac(a2-6)Gal(b1-4)GlcNAc(b1-2)[Neu5Ac(a2-6)Gal(b1-4)GlcNAc(b1-6)]Man(a1-6)[Neu5Ac(a2-6)Gal(b1-4)GlcNAc(b1-2)Man(a1-3)][GlcNAc(b1-4)]Man(b1-4)GlcNAc(b1-4)GlcNAc
# In short: as §1
# [24] = biological target: Neu5Ac(a2-6)Gal(b1-4)GlcNAc(b1-3)Gal(b1-3)GlcNAc
# In short: as §1
# [25] = biological target: Neu5Ac(a2-6)Gal(b1-4)GlcNAc(b1-3)Gal(b1-4)GlcNAc
# In short: as §1
# [26] = biological target: Neu5Ac(a2-6)Gal(b1-4)GlcNAc(b1-3)Gal(b1-4)GlcNAc(b1-2)Man(a1-3)[Neu5Ac(a2-6)Gal(b1-4)GlcNAc(b1-3)Gal(b1-4)GlcNAc(b1-2)Man(a1-6)]GalNAc
# In short: as §1
# [27] = biological target: Neu5Ac(a2-6)Gal(b1-4)GlcNAc(b1-3)Gal(b1-4)GlcNAc(b1-3)Gal(b1-4)GlcNAc
# In short: as §1
# [28] = biological target: Neu5Ac(a2-6)Gal(b1-4)GlcNAc(b1-3)Gal(b1-4)GlcNAc(b1-3)Gal(b1-4)GlcNAc(b1-2)Man(a1-3)[Neu5Ac(a2-6)Gal(b1-4)GlcNAc(b1-3)Gal(b1-4)GlcNAc(b1-3)Gal(b1-4)GlcNAc(b1-2)Man(a1-6)]GalNAc
# In short: as §1
# [29] = biological target: Neu5Ac(a2-6)Gal(b1-4)GlcNAc(b1-3)Gal(b1-4)GlcNAc(b1-3)GalNAc
# In short: as §1
# [30] = biological target: Neu5Ac(a2-6)Gal(b1-4)GlcNAc(b1-3)Gal(b1-4)GlcNAc(b1-3)[Neu5Ac(a2-6)Gal(b1-4)GlcNAc(b1-3)Gal(b1-4)GlcNAc(b1-6)]GalNAc
# In short: as §1
# [31] = biological target: Neu5Ac(a2-6)Gal(b1-4)GlcNAc(b1-3)Gal(b1-4)GlcNAc(b1-6)[Gal(b1-3)]GalNAc
# In short: as §1
# [32] = biological target: Neu5Ac(a2-6)Gal(b1-4)GlcNAc(b1-3)Gal(b1-4)[Fuc(a1-3)]GlcNAc(b1-3)Gal(b1-4)[Fuc(a1-3)]GlcNAc
# In short: as §1
# [33] = biological target: Neu5Ac(a2-6)Gal(b1-4)GlcNAc(b1-3)GalNAc
# In short: as §1
# [34] = biological target: Neu5Ac(a2-6)Gal(b1-4)GlcNAc(b1-3)[Neu5Ac(a2-6)Gal(b1-4)GlcNAc(b1-6)]GalNAc
# In short: as §1
# [35] = biological target: Neu5Ac(a2-6)Gal(b1-4)GlcNAc(b1-6)GalNAc
# In short: as §1
# [36] = biological target: Neu5Ac(a2-6)Gal(b1-4)GlcNAc(b1-6)[Gal(b1-3)GlcNAc(b1-3)]Gal(b1-4)Glc
# In short: as §1
# [37] = biological target: Neu5Ac(a2-6)Gal(b1-4)GlcNAc(b1-6)[Gal(b1-3)]GalNAc
# In short: as §1
# [38] = biological target: Neu5Ac(a2-6)Gal(b1-4)GlcNAc6S
# In short: as §1
# Neu5Ac(a2-6)GalNAc = biological target: Neu5Ac(a2-6)GalNAc
# In short: as §1
# [39] = biological target: Neu5Ac(a2-6)GalNAc(b1-4)GlcNAc
# In short: as §1
# [40] = biological target: Neu5Ac(a2-6)GalNAc(b1-4)GlcNAc6S
# In short: as §1
# [41] = biological target: Neu5Ac(a2-6)GlcNAc(b1-4)GlcNAc
# In short: as §1
binder,measurement,setting,value
B1,glycan array binding signal (z-score),Neu5Ac(a2-3)GalNAc,-0.383
same,glycan array binding signal (z-score),[1],-0.409
same,glycan array binding signal (z-score),[2],2.54
same,glycan array binding signal (z-score),[3],3.07
same,glycan array binding signal (z-score),[4],2.21
same,glycan array binding signal (z-score),[5],-0.073
same,glycan array binding signal (z-score),Neu5Ac(a2-6)Gal,-0.424
same,glycan array binding signal (z-score),[6],-0.416
same,glycan array binding signal (z-score),Neu5Ac(a2-6)Gal(b1-4)Glc,-0.396
same,glycan array binding signal (z-score),[7],-0.389
same,glycan array binding signal (z-score),[8],-0.389
same,glycan array binding signal (z-score),[9],-0.43
same,glycan array binding signal (z-score),[10],-0.422
same,glycan array binding signal (z-score),[11],-0.435
same,glycan array binding signal (z-score),[12],-0.414
same,glycan array binding signal (z-score),[13],-0.427
same,glycan array binding signal (z-score),[14],-0.43
same,glycan array binding signal (z-score),[15],-0.424
same,glycan array binding signal (z-score),[16],-0.432
same,glycan array binding signal (z-score),[17],-0.435
same,glycan array binding signal (z-score),[18],-0.436
same,glycan array binding signal (z-score),[19],-0.423
same,glycan array binding signal (z-score),[20],-0.435
same,glycan array binding signal (z-score),[21],-0.401
same,glycan array binding signal (z-score),[22],-0.376
same,glycan array binding signal (z-score),[23],-0.423
same,glycan array binding signal (z-score),[24],-0.412
same,glycan array binding signal (z-score),[25],-0.418
same,glycan array binding signal (z-score),[26],-0.323
same,glycan array binding signal (z-score),[27],-0.423
same,glycan array binding signal (z-score),[28],-0.235
same,glycan array binding signal (z-score),[29],-0.385
same,glycan array binding signal (z-score),[30],-0.313
same,glycan array binding signal (z-score),[31],-0.421
same,glycan array binding signal (z-score),[32],-0.269
same,glycan array binding signal (z-score),[33],2.03
same,glycan array binding signal (z-score),[34],-0.256
same,glycan array binding signal (z-score),[35],-0.167
same,glycan array binding signal (z-score),[36],-0.418
same,glycan array binding signal (z-score),[37],-0.407
same,glycan array binding signal (z-score),[38],-0.379
same,glycan array binding signal (z-score),Neu5Ac(a2-6)GalNAc,3.61
same,glycan array binding signal (z-score),[39],2.69
same,glycan array binding signal (z-score),[40],2.56
same,glycan array binding signal (z-score),[41],-0.433
